In PubChem BioAssay AID588855 (National Center for Advancing Translational Sciences (NCATS), 2011):
Hit rate of the full screen: of about 410,000 compounds, about 5,000 (1.2%) were called active. The inconclusive results got no clear call from the source; some entries with a clear call stand among them for comparison. Calls come from the whole dose curve; as a rule, active = well fitted inhibition curve with a large enough effect; inconclusive = small, poorly fitted or top-dose-only effect; inactive = no such curve, though single readings can be large or run the other way. Where the call is inconclusive, the potency comes from a doubtful curve fit. Peptide text beside a SMILES is read from it. * marks the point of attachment. Cbz = O=C(OCc1ccccc1)*

assay: qHTS for Inhibitors of TGF-b; settings: HepG2 CAGA-GFP TGF-b/SMAD3 reporter, GFP fluorescence, 18 h, TGF-beta stimulated, 500 pg/mL final; series mostly up to 46.1 µM; note: nearly all actives have a fitted effect of over 65% in size
In short: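 HEPG2 CAGA-GFP cells (1000/well, DMEM with 1% FBS) were pre-incubated 2 h at 37 degrees C, given compound by pin tool, then stimulated with TGF-beta at 500 pg/mL final for 18 h before per-cell GFP fluorescence imaging.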
Potency is the fitted concentration of half-maximal effect; tags give direction and shape of the fitted curve.

SMILES	Potency
CCc1ccc([C@@H]2CC=C(C(=O)O)[C@H](c3ccc(F)cc3)N2S(=O)(=O)c2ccc(C)cc2)cc1	inconclusive: 7.08 µM [inhibitor, partial curve, poor fit]
FC(F)(F)c1nc(SCc2ccc(Cl)cc2Cl)n[nH]1	inconclusive: 22.4 µM [inhibitor, single point]
COc1ccc2oc(=O)cc(CN3CCN(Cc4ccccc4)CC3)c2c1	inconclusive: 35.5 µM [inhibitor, single point]
O=C(CNC(=O)c1cccc(F)c1)N/N=C/c1cc(Br)ccc1OC(=O)/C=C/c1ccco1	inconclusive: 8.91 µM [inhibitor, partial curve]
CC(=O)N1Cc2ccccc2C(C)CC12CCCC2 (stereo unspecified)	inconclusive: 15.8 µM [inhibitor, single point]
COC(=O)c1ccc(/C=C/c2c(-c3ccc(OC)cc3)sc3ccccc23)cc1	inconclusive: 15.8 µM [inhibitor, single point]
O=C(NC1CC1)C1CCN(C2CCN(C(=O)c3ccc4cccc(F)c4n3)CC2)CC1	inconclusive: 35.5 µM [inhibitor, single point]
C(=N\N1CCN(Cc2cccc3ccccc23)CC1)/c1cccs1	inconclusive: 15.8 µM [inhibitor, partial curve, poor fit]
Cc1ccc(S(=O)(=O)c2c(COC(=O)c3ccc(Cl)cc3)c(-c3ccccc3)nn2C)cc1	inactive
Cc1cc2ccccc2n1CCNC(=O)c1cccc(Br)c1	inconclusive: 17.8 µM [inhibitor, partial curve, poor fit]
Cc1ccc(S(=O)(=O)Nc2ccccc2-c2ccccc2NS(=O)(=O)c2ccc(C)cc2)cc1	inconclusive: 17.8 µM [inhibitor, partial curve, poor fit]
CCOC(=O)CNC(=O)Nc1nnc(-c2ccc(OCC)cc2)o1	inactive
COc1ccc(CCNC(=O)CSc2cn(Cc3ccccc3)c3ccccc23)cc1OC	inactive
CCOC(=O)NC(=O)CN1C(=O)NC(C)(c2ccccc2)C1=O (stereo unspecified)	inconclusive: 0.112 µM [inhibitor, full curve, poor fit]
c1ccc2c(c1)OCC(c1csc3ncnc(N4CCCC4)c13)O2 (stereo unspecified)	inconclusive: 14.1 µM [inhibitor, single point]
O=C(C/C=N\OCc1ccc([N+](=O)[O-])cc1)Nc1ccc(Br)cc1	inconclusive: 12.6 µM [inhibitor, partial curve]
O=C(NCc1cccnc1)/C(=C/c1ccc(-c2cccc(C(F)(F)F)c2)o1)NC(=O)c1ccccc1	inconclusive: 35.5 µM [inhibitor, single point]
COc1cc(CNC(C)c2ccccc2)cc(Br)c1OCc1ccccc1 (stereo unspecified)	inconclusive: 35.5 µM [inhibitor, single point]
CC1(C)CC(NS(=O)(=O)OCC(Cl)(Cl)Cl)c2cc(C#N)ccc2O1 (stereo unspecified)	inconclusive: 17.8 µM [inhibitor, single point]
Cc1ccc(C)c(NC(=O)c2cnn(-c3cccc(F)c3)c2C2CCN(C(=O)OC(C)(C)C)CC2)c1	inconclusive: 15.8 µM [inhibitor, single point]
Nc1nccnc1C(=O)OCC(=O)NCCc1ccc(Cl)cc1	inactive
COc1ccc(S(=O)(=O)N2CCCCC2)cc1NC(=O)c1cnc(C)cn1	inconclusive: 35.5 µM [inhibitor, single point]

SMILES	Potency
Cc1cc(C)c(C)c(C(=O)c2ccccc2C(=O)O)c1C	inactive
CN(C)CCOC1c2ccccc2CCc2ccc3ccccc3c21 (stereo unspecified)	inconclusive: 22.4 µM [inhibitor, single point]
CN1C=C/C(=C\c2cc[n+](C)c3ccccc23)c2ccccc21	inconclusive: 3.98 µM [inhibitor, partial curve, poor fit]
Cc1cc(C)c2ccc(/C=N/O)nc2c1O	active: 17.8 µM
COc1cc(OC)cc(-c2c(-c3cccs3)c3cc(-c4ccc(C(N)=O)cc4)ccc3n2C)c1	inactive
CCOC(=O)c1scc(-c2ccccc2)c1S(=O)(=O)Nc1cc(OC)cc(OC)c1	inconclusive: 17.8 µM [inhibitor, partial curve, poor fit]
CC1CCN(c2oc(-c3ccco3)nc2S(=O)(=O)c2ccccc2)CC1	inactive
CN(C)C(=O)/C(=C/c1ccc(-c2cccc([N+](=O)[O-])c2)o1)NC(=O)c1ccccc1	inactive
COc1ccccc1NC(=O)Nc1nc(C(N)C(C)C)cs1 (stereo unspecified)	inconclusive: 35.5 µM [inhibitor, partial curve, poor fit]
CCc1cc(=O)oc2c3c(c(Cl)cc12)OCN(Cc1cccc(OC)c1)C3	inactive
CCN(C(=O)c1cc2c(s1)-c1c(C)cccc1OC2)c1ccccc1F	inconclusive: 35.5 µM [inhibitor, single point]
CNc1oc(-c2ccccc2Cl)nc1P(=O)(c1ccccc1)c1ccccc1	inconclusive: 35.5 µM [inhibitor, single point]
Nc1nc(SCc2ccccc2)c2ncn(C3CCCCC3)c2n1	inactive
O=C(CO/N=C/c1ccc2c(c1)OCO2)Nc1cccc(Br)c1	inactive
CN(C)c1ccc(NC(=O)CSc2nc(N)c(C(=O)Nc3ccc(N(C)C)cc3)s2)cc1	inactive
CCOC(=O)C1CCCN(C(=O)c2ccc3nc(-c4ccccc4)c(-c4ccccc4)nc3c2)C1 (stereo unspecified)	inconclusive: 35.5 µM [inhibitor, single point]
CC(NC(=O)CNC(=O)C(Cc1ccccc1)NC(=O)OCc1ccccc1)C(N)=O (stereo not drawn) (Cbz-Phe-Gly-Ala-NH2; configuration not given here)	inconclusive: 6.31 µM [inhibitor, single point]
CC1Cc2ccccc2N1S(=O)(=O)c1cccc(C(=O)c2nccn2C)c1 (stereo unspecified)	inconclusive: 10 µM [inhibitor, partial curve]
O=C(N/C(=C\c1cccc(Br)c1)C(=O)N1CCCCC1)c1ccco1	inactive
COc1cccc(N2CCN(C(=O)c3cc4ccc(OC)cc4[nH]3)CC2)c1	inconclusive: 35.5 µM [inhibitor, single point]
COc1ccc(CN2CCN(Cc3cc(=O)oc4cc(C)ccc34)CC2)c(OC)c1OC	inconclusive: 22.4 µM [inhibitor, single point]
CN(C)c1ccc(C(CNS(=O)(=O)c2ccc(F)cc2)c2c[nH]c3ccccc23)cc1 (stereo unspecified)	inconclusive: 12.6 µM [inhibitor, partial curve, poor fit]

SMILES	Potency
CC(=O)NC(=S)Nc1cccc2ccc(C)nc12	inactive
O=C(NC1CCCCCCC1)c1cc(COc2ccc3ncccc3c2)on1	inconclusive: 0.631 µM [inhibitor, full curve]
COC(=O)c1ccc(CSc2nc3c([nH]c4ccccc43)c(=O)n2-c2ccc(Cl)cc2)o1	inactive
CCc1nnc(N/N=C/c2c(C)[nH]c3ccccc23)n1N	inconclusive: 25.1 µM [inhibitor, single point]
O=C(N/N=C/C(Br)=C/c1ccccc1)c1ccccc1F	inactive
Cc1ccc(-n2nc3c(=O)n(C(C)C(=O)NCCC4=CCCCC4)nc(C)c3c2C)cc1 (stereo unspecified)	inconclusive: 14.1 µM [inhibitor, single point]
NNc1ccc(Cl)nn1	inconclusive: 31.6 µM [inhibitor, single point]
O=C1CC(c2nc3ccccc3[nH]2)CN1c1cccc(Cl)c1 (stereo unspecified)	inconclusive: 35.5 µM [inhibitor, partial curve, poor fit]
Cc1nnc(NC(=O)c2cccc(S(=O)(=O)N3CCc4ccccc43)c2)s1	inactive
Cc1ccc(S(=O)(=O)N(C)[C@H]2C[C@H]3c4[nH]c5ccccc5c4CCN3C[C@H]2[C@H](C)O)cc1	inconclusive: 22.4 µM [inhibitor, single point]
Cc1ccc(OCc2ccc(C(=O)O)o2)c([N+](=O)[O-])c1	inactive
COc1ccc(-c2nsc(C(=O)N(c3ccc(F)cc3)C(C(=O)NC3CCCC3)c3ccc(OC)cc3)c2N)cc1 (stereo unspecified)	inconclusive: 5.01 µM [inhibitor, full curve, poor fit]
COc1ccc(OCc2cccc(C(=O)Nc3cc(C)on3)c2)cc1	inconclusive: 3.55 µM [inhibitor, single point]
Cc1nn(-c2ccc(F)cc2)c(Cl)c1/C=N/NC(=O)c1cccs1	inconclusive: 14.1 µM [inhibitor, single point]
COc1cccc(N2CCN(C(=O)c3ccc(Cn4c(=O)[nH]c5cc(OC)c(OC)cc5c4=O)cc3)CC2)c1	inconclusive: 20 µM [inhibitor, single point]
COc1ccc(-c2nn(-c3ccccc3)cc2/C=N/Nc2ccc3ccccc3n2)cc1OC	inconclusive: 4.47 µM [inhibitor, full curve]
CC1CCc2nc3ncn(Cc4ccccc4C#N)c(=O)c3cc2C1 (stereo unspecified)	inactive
O=C(O)CCn1cc(-c2ccc(Cl)cc2)nc1-c1ccncc1	inconclusive: 11.2 µM [inhibitor, partial curve]
O=C1C(=O)N(CCS(=O)(=O)c2ccccc2)c2ccc(F)cc21	inconclusive: 35.5 µM [inhibitor, single point]
S=c1[nH]nc(COc2ccccc2)n1/N=C/c1cccc(Cl)c1Cl	inactive
Cc1nc2ccccc2c(=O)n1NCc1cccs1	inactive
Cc1cc(C)c2c(CC(=O)N3CCN(c4cccc(Cl)c4)CC3)coc2c1	inconclusive: 35.5 µM [inhibitor, single point]
